Test results from PubChem BioAssay (NCATS).
The inconclusive results got no clear call from the source; some entries with a clear call stand among them for comparison. For part of these data: Where the call is inconclusive, the potency comes from a doubtful curve fit. Active and inactive are the calls of the source. Unless noted, the call rests on the fitted dose curve; in most records, active means well fitted inhibition curve with a large enough effect; inconclusive means small, poorly fitted or top-dose-only effect; inactive means no such curve, though single readings can be large or run the other way.

Assays:
[1] = biological target: Aldehyde dehydrogenase, mitochondrial (Homo sapiens) (UniProt P05091); experiment: qHTS for Inhibitors of the Aldehyde Dehydrogenase Family (ALDH2) Confirmatory screens (AID 2061303; active means well fitted inhibition curve with a large enough effect; inconclusive means small, poorly fitted or top-dose-only effect; inactive means no such curve, though single readings can be large or run the other way; title and protocol of this record describe different tests; further: nearly all actives have a fitted effect of over 45% in size); settings: ALDH inhibition qHTS; activity change, negative = inhibition: at 45.4 µM (top of the series)
[2] = qHTS for Inhibitors of the Aldehyde Dehydrogenase Family (ALDH1A2, ALDH1A3, ALDH2, ALDH3A1) (AID 2061307); settings: ALDH inhibition qHTS; activity change, negative = inhibition: at 50.3 µM (top of the series) unless noted; further: nearly all actives have a fitted effect of over 50% in size; on potency: test system not described further here
[3] = biological target: Retinaldehyde dehydrogenase 3 (Homo sapiens) (UniProt P47895); experiment: qHTS for Inhibitors of the Aldehyde Dehydrogenase Family (ALDH1A3) Confirmatory screens (AID 2061311); settings: activity change, negative = inhibition: at 46 µM (top of the series); further: nearly all actives have a fitted effect of over 60% in size
[4] = biological target: Retinal dehydrogenase 2 (Homo sapiens) (UniProt O94788); experiment: qHTS for Inhibitors of the Aldehyde Dehydrogenase Family (ALDH1A2) Confirmation screens (AID 2061314); settings: activity, negative = inhibition: at 45.9 µM (top of the series) unless noted; further: nearly all actives have a fitted effect of over 65% in size
[5] = biological target: Retinaldehyde dehydrogenase 3 (Homo sapiens) (UniProt P47895); experiment: qHTS for Inhibitors of the Aldehyde Dehydrogenase Family (ALDH1A3) Primary screen (AID 2061315); settings: ALDH inhibition qHTS; activity change, negative = inhibition: at 56 µM (top of the series) unless noted
[6] = biological target: Aldehyde dehydrogenase 1A1 (Homo sapiens) (UniProt P00352); experiment: qHTS for Inhibitors of the Aldehyde Dehydrogenase Family (ALDH1A1) Confirmatory screens (AID 2061316); settings: activity change, negative = inhibition: at 47.3 µM (top of the series); further: nearly all actives have a fitted effect of over 65% in size
Potency means the concentration at half of the fitted maximal effect; tags describe the fitted curve by direction and shape.

Structure (SMILES)	Potency [1]	Potency [2]	Potency [3]	Potency [4]	Potency [5]	Potency [6]
O=C([C@H](Cc1ccc(O[S+](=O)([O-])c2ccccn2)cc1)N[S+](=O)([O-])c1cccc2cnccc12)N1CCN(c2ccccc2)CC1	inconclusive: 15.8 µM [inhibitor, partial curve, poor fit]	inconclusive: 3.55 µM [inhibitor, full curve, poor fit]	inconclusive: 15.9 µM [inhibitor, partial curve]	inconclusive: 14.1 µM [inhibitor, full curve]	–	–
CCOC(=O)c1csc(NC(=O)c2ccncc2NS(=O)(=O)c2ccc(C)cc2)n1	inconclusive: 0.708 µM [inhibitor, full curve, poor fit]	inconclusive: 3.98 µM [inhibitor, full curve, poor fit]	inconclusive: 22.5 µM [inhibitor, partial curve]	inconclusive: 3.55 µM [inhibitor, full curve, poor fit]	inactive	inconclusive: 31.8 µM [inhibitor, single point]
Cc1ccc(N[S+](=O)([O-])c2cc3c(cc2NC2CC2)NC(=O)CC3)cc1C	inconclusive: 12.7 µM [inhibitor, partial curve, poor fit]	inconclusive: 15.9 µM [inhibitor, partial curve, poor fit]	inconclusive: 28.3 µM [inhibitor, partial curve]	inconclusive: 12.7 µM [inhibitor, partial curve]	–	–
Cc1c(C(=O)OCC2CC2)[nH]c2c1C(=O)CC(c1ccco1)C2 (stereo not given)	inconclusive: 7.12 µM [inhibitor, partial curve]	inconclusive: 11.3 µM [inhibitor, partial curve]	inconclusive: 12.7 µM [inhibitor, partial curve]	active: 8.96 µM	–	–
COc1cc(/C=C/c2cc(O)cc(O[C@@H]3O[C@H](CO)[C@@H](O)[C@H](O)[C@H]3O)c2)ccc1O	inactive	inactive	inconclusive: 11 µM [inhibitor, partial curve]	inactive	active: 6.31 µM	inactive
COC(=O)c1ccccc1-c1ccc(/C=c2\sc3nc4cc(Br)cnc4n3c2=O)o1	inconclusive: 22.5 µM [inhibitor, partial curve]	inconclusive: 12.7 µM [inhibitor, partial curve]	inconclusive: 12.7 µM [inhibitor, partial curve]	inconclusive: 7.12 µM [inhibitor, full curve]	–	–
Cn1nnnc1Sc1ncnc2scc(-c3cccc(N)c3)c12	inconclusive: 12.7 µM [inhibitor, partial curve]	inconclusive: 28.3 µM [inhibitor, partial curve]	inconclusive: 28.3 µM [inhibitor, single point]	inconclusive: 7.98 µM [inhibitor, partial curve]	–	–
N[C@@H](Cc1ccc(OS(=O)(=O)c2cccnc2)cc1)C(=O)N1CCN(c2ccccc2)CC1	inconclusive: 28.2 µM [inhibitor, partial curve, poor fit]	active: 5.65 µM	inconclusive: 12.7 µM [inhibitor, partial curve]	inconclusive: 12.7 µM [inhibitor, partial curve, poor fit]	–	–
CC(=O)CC1CCC(C(C)C(=O)OCC(O)CO)O1 (stereo not given)	inconclusive: 11.3 µM [inhibitor, partial curve]	inconclusive: 1.78 µM [inhibitor, full curve, poor fit]	active: 4.49 µM	inconclusive: 11.3 µM [inhibitor, partial curve]	active: 15.8 µM	–
N#Cc1cccc(N2CCN(Cc3ccc(F)c(Cl)c3F)CC2)n1	active: 15.8 µM	active: 4.58 µM	inconclusive: 6.47 µM [inhibitor, partial curve]	inconclusive: 18.2 µM [inhibitor, partial curve]	–	–
